Experimental data as given in PubChem BioAssay AID463173 (ICCB-Longwood Screening Facility, Harvard Medical School, 2010).
The whole screen tested about 52,000 compounds, of which about 4,300 (8.3%) were called active. No stated cut-off is given here; in the data, active means survival mostly below about 52% (no sharp cut-off); inactive means mostly above about 56%. Some of the results follow.

The compounds below were run on DeltatarO mutant (assay: growth inhibition of S. aureus wild type versus tarO mutant, primary screen, teichoic acid synthesis inhibitors, RN4220, OD600 (AID 463173)). Settings: OD600, 18 h, stronger effect = lower value, screened at 18.75 µg/mL (by protocol).
For `Cc1ccc(-n2c3c(c(=O)[nH]c2=O)C(NC(=O)c2ccccc2F)(C(F)(F)F)C(=O)N3)cc1C` (stereo unspecified), the survival was inactive: 92%.
`CCN(CCCNC(=O)c1cc2c(=O)n(CC)c3ccccc3c2s1)c1cccc(C)c1` was tested, and the survival was active: 42%.
In the case of `Cc1ccccc1-c1nc(CS(=O)(=O)CC(=O)NC(C)c2ccccc2)c(C)o1` (stereo unspecified), the survival is reported as inactive: 138%.
`CCc1ccc(N2CCn3c2nc2c3c(=O)n(Cc3ccc(F)cc3)c(=O)n2C)cc1` was tested, and the survival was inactive: 86%.
For `COc1ccc2c(c1)c(=O)c(S(=O)(=O)c1ccc(C)c(C)c1)cn2CC(=O)Nc1ccccc1`, the survival was inactive: 93%.
For `COc1ccc(NC(=O)NC2COc3ccccc3C2)c(OC)c1` (stereo unspecified), the survival was inactive: 98%.
For `CC(C)c1ccc(NC(=O)C2CCN(S(=O)(=O)c3cccc4nsnc34)CC2)cc1`, the survival was inactive: 72%.
`O=C(Cn1ccn(-c2cccc(Cl)c2)c(=O)c1=O)NCCc1ccccc1` was tested, and the survival was inactive: 57%.
In the case of `Cc1c(C(=O)Nc2nc(-c3ccc(F)cc3)ns2)oc2ccc(Br)cc12`, the survival is reported as inactive: 86%.
For `O=C1OC(Nc2ccccc2C(F)(F)F)c2ccccc21` (stereo unspecified), the survival was inactive: 45%.
With `O=c1cc(-c2ccccc2)nc(SCc2nc(-c3ccc(C(F)(F)F)cc3)no2)[nH]1` the survival was inactive: 188%.
In the case of `NC(=O)CSc1nnc(-c2ccccc2)o1`, the survival is reported as inactive: 103%.
`COc1ccc(CNC(=O)CCc2cn(Cc3cc(C)ccc3C)c3ccccc23)cc1OC` was tested, and the survival was inactive: 71%.
With `CC(C)(C)c1ccc(-c2nc3cc(NC(=O)c4cc5ccccc5o4)ccc3o2)cc1` the survival was inactive: 71%.
`CCCOc1ccc(-c2nc3ccccc3c(=O)o2)cc1` was tested, and the survival was inactive: 64%.
In the case of `COc1ccc(CCNC(=O)c2ccc3c(c2)N(Cc2ccc(C)cc2)CCS3)cc1OC`, the survival is reported as inactive: 93%.
In the case of `COCCNC(=S)N1CCN(c2ccc(S(=O)(=O)N3CCCC3)cc2)CC1`, the survival is reported as inactive: 65%.
In the case of `CC(C)N(C(=O)CSc1nnnn1C1CCCC1)C(C)C`, the survival is reported as inactive: 96%.
`CC1=C(C(N)=O)C(c2ccc(C(C)C)cc2)n2nc(SCc3ccccc3)nc2N1` (stereo unspecified) was tested, and the survival was inactive: 75%.
In the case of `CCOc1ccc(S(=O)(=O)N(CC(=O)Nc2cccnc2)c2ccccc2)cc1`, the survival is reported as inactive: 114%.
For `Cc1cc(C)n2nc(SCC(=O)Nc3cc(Cl)ccc3C)nc2n1`, the survival was inactive: 63%.
For `COc1ccc2c(c1)cc(CNc1ccc(OC)c(OC)c1)c(=O)n2CC(=O)Nc1ccc(F)cc1`, the survival was inactive: 74%.
In the case of `CN(CC(=O)Nc1cccc(Cl)c1)S(=O)(=O)c1ccc2[nH]c3c(c2c1)CCCC3`, the survival is reported as inactive: 88%.
With `O=S(=O)(NCC(c1ccco1)S(=O)(=O)c1ccccc1)c1ccccc1` (stereo unspecified) the survival was inactive: 102%.
In the case of `Cc1c(C(=O)Nc2ccc(F)c(F)c2)oc2ccc(S(=O)(=O)N3CCCCC3)cc12`, the survival is reported as active: 52%.
For `Cc1ccccc1Nc1ccc2noc3c2c1C(=O)c1ccccc1-3`, the survival was inactive: 79%.
`COc1ccccc1CNC(=O)CCc1c(C)c2ccc(OC)c(C)c2oc1=O` was tested, and the survival was inactive: 74%.
`COc1ccccc1CNC(=O)CCCCn1c(=O)c2ccccc2n(Cc2c(C)cc(C)cc2C)c1=O` was tested, and the survival was inactive: 87%.
For `COc1ccc(CNC(=O)Cn2c(=O)oc3cc(S(=O)(=O)N4CCCCCC4)ccc32)cc1`, the survival was inactive: 69%.
In the case of `COc1ccc(N2CCN(C(=O)CCc3c(C)nc4c(-c5ccccc5)c(C)nn4c3C)CC2)cc1`, the survival is reported as inactive: 91%.
With `Cc1nc2c(C(=O)NCc3ccccc3Cl)c[nH]n2c(=O)c1Cc1cccc(Cl)c1` the survival was active: -16%.
In the case of `CC(NC(=O)CSc1n[nH]c(-c2ccccc2Cl)n1)c1nc2ccccc2n1C` (stereo unspecified), the survival is reported as inactive: 117%.
For `Cc1c(Cl)cccc1NC(=O)CC(c1cccs1)N1Cc2ccccc2C1=O` (stereo unspecified), the survival was active: 32%.
For `CCOc1ccc(NC(=O)CN2CCN(Cc3ccccc3)S2(=O)=O)cc1`, the survival was inactive: 91%.
`COc1c(C)cc(S(=O)(=O)Nc2cccc(-c3ccc(N4CCOCC4)nn3)c2)c(C)c1C` was tested, and the survival was inactive: 91%.
In the case of `CCOC(=O)c1cccc(NC(=O)CC(c2cc(OC)c(OC)c(OC)c2)N2Cc3ccccc3C2=O)c1` (stereo unspecified), the survival is reported as inactive: 87%.
For `CCn1c(=NC(=O)c2ccc(S(=O)(=O)N3CCCCC3)cc2)sc2cccc(OC)c21`, the survival was inactive: 89%.
In the case of `CCc1nn2c(-c3ccccc3OC)ccnc2c1-c1ccc(F)cc1`, the survival is reported as active: 2%.
With `COC(=O)c1ccc(NC(=O)CCc2c(C)nc3c(c(C)nn3-c3ccc(C)cc3)c2C)cc1` the survival was inactive: 53%.
`Oc1c(C(c2ccccc2F)N2CCOCC2)sc2nc(-c3ccco3)nn12` (stereo unspecified) was tested, and the survival was inactive: 80%.
With `COc1ccc(CCNc2nc(-c3ccc(C)cc3)cc(C(F)F)n2)cc1OC` the survival was inactive: 87%.
`Cc1cccc(NC(=O)c2oc3c(c2C)-c2[nH]ncc2CC3)c1C` was tested, and the survival was inactive: 79%.
With `Cc1cccc(C(=O)N2CCc3cc(CNC(=O)c4ccnn4C)ccc32)c1` the survival was inactive: 77%.
With `CCOc1ccccc1NC(=O)CN1C(=O)COc2ccc(S(=O)(=O)N3CCCCCC3)cc21` the survival was inactive: 73%.
For `COc1ccc(NC(=O)c2c(C(=O)Nc3ccccc3)sc3nc(C)cc(=O)n23)cc1`, the survival was inactive: 63%.
In the case of `CCOc1ccccc1NC(=O)Cc1coc2c(C)c(C)ccc12`, the survival is reported as inactive: 101%.
For `Cc1ccc(CCNC(=O)C(CC(C)C)NS(=O)(=O)c2ccc3c(c2)oc(=O)n3C)cc1` (stereo unspecified), the survival was inactive: 93%.
With `COc1ccc(-c2cc(C(F)(F)F)nc(SCC(=O)NN3CCN(C)CC3)n2)cc1` the survival was inactive: 70%.
With `CCCCN(C)CCCNC(=O)CN1C(=O)COc2ccc(S(=O)(=O)N3CCC(C)CC3)cc21` the survival was inactive: 98%.
`CCOC(=O)N1CCc2c(sc(NCc3sccc3C)c2C(=O)Nc2cc(OC)ccc2OC)C1` was tested, and the survival was inactive: 91%.
In the case of `COc1cccc(NC(=O)CSc2cc(=O)n(C)c3ccc(Cl)cc23)c1`, the survival is reported as inactive: 85%.
For `Cc1cc(=O)[nH]c2nnc(SCc3ccc(Cl)c(Cl)c3)n12`, the survival was inactive: 97%.
In the case of `CCCCNC(=O)C1CCN(C(=O)N2CC(C)Oc3ccc(Cl)cc32)CC1` (stereo unspecified), the survival is reported as inactive: 65%.
With `CCOc1ccccc1-n1c(C)nc2cc(C(=O)O)ccc21` the survival was inactive: 103%.
In the case of `CCCCN(C)CCCNC(=O)c1cc(=O)[nH]c2ccc(S(=O)(=O)N3CCCCC3)cc12`, the survival is reported as inactive: 77%.
For `CC(=O)N1c2ccc(S(=O)(=O)NCC3CCC(C(=O)Nc4ccccc4C)CC3)cc2CC1C` (stereo unspecified), the survival was inactive: 104%.
